The results in this text go back to patent US12403200B2, “Methods and compositions for treating autoimmune diseases” (priority 2019, dated 2025).

In one data set the test system is murine T cells. Description: In vitro killing of αCD3-stimulated murine T cells. The data set is classed as cell-based, mouse. The protocol: Mouse PBMCs were cultured with plate bound αCD3 clone 145-2C11C to promote survival and expansion of murine T cells. T cells were cultured with an anti-mouse CD45-ADC (anti-CD45 mAb conjugated to PBD) or an isotype-ADC, and total T cell number and percentage of proliferating (Ki67+) T cells were assessed.

Data set [1] deals with proliferating allogeneic T cells. Description: Sclerodermatous GvHD (scGVHD) model, in vivo T cell depletion. Also on record: species or system mouse. As for the experimental part: DBA/2 and Balb/c (CD45.1) mice were purchased from the Jackson Laboratories. Balb/c (CD45.1) mice were conditioned with 6.5 Gy total body irradiation (TBI) 24 h prior to allogeneic (Allo) adoptive cell transfer of DBA/2 (CD45.2) splenocytes (see study design in FIG. 3A).
Host animals (CD45.1+) were treated with a single intravenous dose (3 mg/kg) administration of anti-mouse CD45-ADC, or isotype-ADC 7 days post initiation of scGvHD (CD45.2+ cells). Animals were euthanized on day 12 post initiation (5 days post ADC administration). Tissues (blood, spleen) were analyzed for allogeneic cells, T-cells, and proliferating T cells (FIGS. 3B and 3C).

A further data set deals with RIP-OVA mice. Description: Adoptive transfer model of Type I diabetes (RIP-OVA/OT-I/II). The data set is classed as in vivo, mouse. The note with it: 1 or 3 mg/kg single dose plus congenic HSC transplant; n=6. The source says:
RIP-OVA mice are B6 mice that express chicken ovalbumin in β-islet cells of pancreas. Central and peripheral tolerance mechanisms combine such that the adaptive immune system recognizes OVA as self. OT-I (MHC I-restricted) and OT-II (MHC II restricted) are two TCR Tg lines that specifically recognize epitopes of OVA. They were maintained on a B6 background.
Adoptive transfer of OT-I and OT-II into RIP-OVA mice led to destruction of β islet cells and onset of diabetes. Diabetes onset was monitored by blood glucose level (tail vein nick to test on strips; glucose >14.3 mmol/L). Mice became diabetic in this model 5-12 days after transfer of CD8+ OT-I cells (two consecutive measurements of 250 mg/dL, Drujont PLoS One 2014). Mice were peeled off on day 6 post adoptive transfer (n=4/treatment). Flow cytometry was performed on peripheral blood, spleen, dLN, and pancreas for Vβ5, Vα2 to measure transferred cells. Subsequently, mice (n=6 mice/group) were transplanted with 2×10^7 cells from B6 CD45.1 two days post-treatment. Body weight, BCS, and blood glucose 2× week were measured as endpoints.
RIP-OVA mice were treated with either a vehicle control, anti-Thy1.2 (500 ug), 9 Gy TBI, 1 mg/kg or 3 mg/kg Isotype-ADC (Iso-PBD), or 1 mg/kg or 3 mg/kg CD45-ADC (CD45-PBD).

The subject of another data set is Balb/c mice (CD45.2+). Description: Proteoglycan-induced arthritis (PGIA) model with congenic BMT. It counts as in vivo, mouse. The protocol: Conditioning with an anti-mouse CD45-ADC (anti-CD45 mAb conjugated to PBD) prior to bone marrow transplant was assessed in mouse proteoglycan-induced arthritis (PGIA), a murine model of rheumatoid arthritis. As depicted in FIG. 9A, Balb/c mice (CD45.2+) were given 3 immunizations (study day 0, 21, and 42) with recombinant human core G1 aggrecan (60 μg in 2 mg DDA). Animals were treated on day 11 post the final immunization (study day 53) and conditioned animals were transplanted with Balb/c CD45.1+ congenic BM 48 hours later. Animals treated with a neutralizing monoclonal antibody to murine TNFα received 500 μg/mouse IP weekly starting on study day 53.
The clinical scoring system for the model as developed by Glantt and Mikecz (Methods in Molecular Medicine, Vol. 102 (17):313-338) was used to score animals, with examples from control and CD45-ADC-treated animals shown in FIG. 9D.

The subject of a further data set is C57BL/6 (CD45.2+) mice. Description: MOG-induced EAE model with congenic transplant. It counts as in vivo, mouse. As for the experimental part: Experimental Autoimmune Encephalomyelitis (EAE) Model: C57BL/6 (CD45.2) mice were induced with MOG35-55 peptide in complete Freund's adjuvant, followed by the administration of pertussis toxin (PTX) at 4 h post MOG35-55 and 24 h post initial dose of PTX. Disease onset was around 9-12 days post induction. Animals were scored twice a day for a duration of 80 days post EAE induction. EAE Clinical Scoring Scale: 1-limp tail; 2-partial hind limb paralysis; 3-Complete hind limb paralysis; 4-Complete hind and partial front limb paralysis; 5-moribund bound. Animals were euthanized at 2 consecutive scores of 4. Terminal analysis of tissues (peripheral blood, lymph nodes) were evaluated to determine chimerism and immune component of the relapsing EAE mice. Lymph node cells were stimulated (S) with PMS/lonomycin (50 ng/mL) and Brefeldin A (1 μg/mL) or not stimulated (NS) and evaluated for T cell chimerism (donor, host) and IL-17 production.
To induce EAE in a murine model, C57BL/6 (CD45.2+) mice were induced with MOG35_55 peptide in complete Freund's adjuvant, followed by the administration of pertussis toxin (PTX). […]

The subject of the next data set is C57BL/6 (CD45.2) mice. Description: Conditioning for congenic bone marrow transplant in mice. The data set is classed as in vivo, mouse. As for the experimental part:
C57BL/6 (CD45.2) and C57BL/6 (CD45.1) mice were purchased from the Jackson Laboratories. C57BL/6 (CD45.2) mice were conditioned with a single intravenous dose administration of anti-mouse CD45-ADC (0.3, 1, or 3 mg/kg) or Isotype-ADC (isotype control mAb conjugated to PBD) (3 mg/kg) 48 h prior to transplant (see FIG. 1A for depiction of study design). 5 Gy TBI was used as the conventional conditioning positive control administered 24 h prior to transplant. Conditioned mice were transplanted with 2×10^7 whole bone marrow cells harvested from pooled C57BL/6 CD45.1 congenic donor, and chimerism was assessed over 16 weeks. Peripheral blood was harvested at week 4, 8, 12, and 16, and assessed by flow cytometry.
To model this approach in mice, an ADC targeting murine CD45 (anti-CD45 mAb conjugated to PBD) was generated as a single conditioning agent for murine congenic transplant. The murine CD45 ADC specifically targets the CD45.2 isoform of mouse CD45, and is engineered to eliminate effector function, allow for site-specific conjugation of linker payload, and be rapidly cleared. The payload for this murine tool ADC is potent and preferentially kills dividing cells. The anti-mouse CD45 ADC was evaluated for the ability to condition recipients in a murine congenic transplant model following a single myeloablative dose. This ADC was further evaluated for its ability to eliminate pathogenic host-reactive cells and enable immune reset in recipients in the context of multiple murine models of autoimmune disease, including MOG-induced experimental autoimmune encephalitis (EAE; a murine model of multiple sclerosis (MS)), proteoglycan-induced arthritis (PGIA), type 1 diabetes, and sclerodermatous graft-vs-host disease (scGVHD).

Another data set deals with resting T cells. Description: Adoptive transfer of splenocytes from treated B6 mice into NSG hosts (allogeneic response). The data set is classed as in vivo, mouse. The note with it: splenocytes isolated 7 days after treatment of B6 mice. As for the experimental part:
B6 mice (H-2^b) were treated with vehicle, Isotype-ADC, or CD45-ADC (anti-CD45 mAb conjugated to PBD). After 7 days, splenocytes were isolated, labelled with CellTrace Violet, and adoptively transferred into naïve, immunodeficient NSG hosts (H-2^g7, H-2d). Cells were isolated from peripheral blood (d2 and d7) and spleen (d7) at various times post transfer and assessed for CTV staining intensity (FIG. 8A), the absolute number of T cells in the peripheral blood as a function of days post-transfer (FIG. 8B), and the absolute number of T cells in the spleen seven days post-transfer (FIG. 8C).

B1: anti-mouse CD45-ADC: anti-mouse CD45-ADC containing an anti-CD45 antibody conjugated to pyrrolobenzodiazepine (PBD); targets the CD45.2 isoform of mouse CD45 (conjugate)
heavy: EVQLVESGGGLVQPGGSLRLSCAASGFTFEAYSMNWVRQAPGKGLEWVSYISLSGATIHYADSVKGRFTISRDNAKNSLYLQMNSLRAEDTAVYYCARGGQYYYTSSDYGEVAFDIWGQGTMVTVSSASTKGPSVFPLAPSSKSTSGGTAALGCLVKDYFPEPVTVSWNSGALTSGVHTFPAVLQSSGLYSLSSVVTVPSSSLGTQTYICNVNHKPSNTKVDKKV[omitted - human IgG1 Fc with L234A L235A D265C H435A (EU numbers)]
light: DIVMTQSPLSLPVTPGEPASISCRSSQSLVSSGYNYLDWYLQKPGQSPQLLIYFGSSRASGVPDRFSGSGSGTDFTLKISRVEAEDVGVYYCMQRRRTPWSFGGGTKVEIKRTVAAPSVFIFPPSDEQLKSGTASVVCLLNNFYPREAKVQWKVDNALQSGNSQESVTEQDSKDSTYSLSSTLTLSKADYEKHKVYACEVTHQGLSSPVTKSFNRGEC
For the molecule B1, the “proliferating T cells (Ki67+)” value with murine T cells (increasing doses, compared to Isotype-ADC) is listed as “dose responsive decrease of proliferating T cells”. The “total T cell number” value in the data set on murine T cells (vs. Isotype-ADC) was “substantially reduces the number of T cells”. The “depletion of T-cells in spleen or peripheral blood” value in data set [1] (3 mg/kg single iv dose 7 days post initiation, 5 days post ADC, compared to Isotype-ADC) is listed as “greater depletion of T-cells”. Besides, in data set [1] (3 mg/kg single iv dose, compared to isotype-ADC), the “depletion of proliferating allogeneic T cells” value was “selectively depletes a greater percentage of proliferating allogeneic T cells”. For the same molecule, the diabetes incidence result in the data set on RIP-OVA mice was “zero out of the 6 mice”. Moreover, the “full congenic donor chimerism enabled in peripheral blood and bone marrow” value with Balb/c mice (CD45.2+) (2 mg/kg, 3 weeks post-transplant) is listed as “enabled full congenic donor chimerism”. Also, the arthritis disease progression result in the data set on Balb/c mice (CD45.2+) (therapeutic intervention day 11 post 3rd immunization, with BMT) is listed as “halted disease progression”. Besides, the “EAE disease onset (FIG. 5E)” value in the data set on C57BL/6 (CD45.2+) mice (1 mg/kg CD45-ADC) is 21 days; with C57BL/6 (CD45.2+) mice (3 mg/kg CD45-ADC+BMT) it was 42 days. For the same molecule, the “EAE peak disease score (FIG. 5E)” value with C57BL/6 (CD45.2+) mice (1 mg/kg CD45-ADC) is listed as 2.1; in the data set on C57BL/6 (CD45.2+) mice (3 mg/kg CD45-ADC+BMT) it was 0.75. The Incidence with C57BL/6 (CD45.2+) mice (Table 3, EAE incidence, treatment groups of FIG. 5G) amounted to 25%. Further, the “Mean Time to EAE onset” value in the data set with C57BL/6 (CD45.2+) mice (Table 3, treatment groups of FIG. 5G) was 38 days. In addition, the “donor chimerism in EAE mice (terminal analysis of tissues)” value in the data set with C57BL/6 (CD45.2+) mice (conditioning day 5 post-immunization, congenic transplant 48 h later) is “full donor chimerism”. The “mean time to EAE disease onset” value in the data set on C57BL/6 (CD45.2+) mice (conditioning followed by congenic transplant prior to disease onset (FIG. 5G)) stood at 38 days. Further, the EAE disease incidence in the data set with C57BL/6 (CD45.2+) mice (conditioning followed by congenic transplant prior to disease onset (FIG. 5G), n=12) was determined as 25%. Also, the “peak disease score in active EAE” value is reported as 2.3 in the data set on C57BL/6 (CD45.2+) mice (treatment at day 13) and 0.75 with C57BL/6 (CD45.2+) mice (treatment on day 10, 3 mg/kg, followed by congenic transplant). In the data set on C57BL/6 (CD45.2+) mice (treatment on day 10 or day 13), the “progression of disease activity in active EAE” value is “halted progression of disease activity”. The “donor chimerism following congenic transplant” value with C57BL/6 (CD45.2) mice (3 mg/kg, iv, single dose, 48 h prior to transplant) is “full donor chimerism”. In addition, the “myeloablation in recipient mice” value with C57BL/6 (CD45.2) mice (single dose 3 mg/kg) is reported as “full myeloablation”. Moreover, the “depletion of LT-HSCs (Lin−Kit+Sca−1+CD150+CD48−)” value with C57BL/6 (CD45.2) mice (single dose 3 mg/kg, congenic mouse transplant model) was over 99%. Besides, the “chimerism at 16 weeks” value with C57BL/6 (CD45.2) mice (single dose 3 mg/kg, transplanted with congenic BMT) is over 90%. Also, in the data set on resting T cells, the “T cell expansion after adoptive transfer into immunodeficient allogeneic recipients” value was “could not proliferate”.
